Data taken from patent publication US20240383990A1 (DIAGONAL THERAPEUTICS, published 2024).

Key:
Test in all cases: cell-based or functional assay
[1] = target: T1, ALK1 / BMPRII receptor pair (BMPR Type I receptor ALK1 and BMPR Type II receptor BMPRII) on cells (UniProt P37023 22-503; Q13873 27-1038, limits assumed)
[2] = target: T1, ALK1 / BMPRII receptor pair (BMPR Type …); remark: listed apart in the source
[3] = target: T1, ALK1 / BMPRII receptor pair (BMPR Type …); remark: listed apart in the source
[4] = target: T1, ALK1 / BMPRII receptor pair (BMPR Type …); remark: listed apart in the source
[5] = target: T1, ALK1 / BMPRII receptor pair (BMPR Type …); remark: listed apart in the source

T1 sequence (P37023 22-503 limits assumed, chain 1 of 2): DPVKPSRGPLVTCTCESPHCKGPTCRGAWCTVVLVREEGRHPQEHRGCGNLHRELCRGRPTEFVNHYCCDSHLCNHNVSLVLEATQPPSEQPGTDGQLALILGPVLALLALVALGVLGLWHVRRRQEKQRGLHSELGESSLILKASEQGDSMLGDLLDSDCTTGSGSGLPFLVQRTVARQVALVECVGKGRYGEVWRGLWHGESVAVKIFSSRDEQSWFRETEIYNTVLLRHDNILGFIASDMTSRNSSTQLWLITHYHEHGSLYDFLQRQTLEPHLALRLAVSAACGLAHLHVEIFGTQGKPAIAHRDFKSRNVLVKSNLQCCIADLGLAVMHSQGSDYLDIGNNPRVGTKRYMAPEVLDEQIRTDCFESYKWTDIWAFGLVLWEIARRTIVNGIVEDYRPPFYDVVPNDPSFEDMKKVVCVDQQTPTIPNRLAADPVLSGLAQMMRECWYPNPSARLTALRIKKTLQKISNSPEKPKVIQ
T1 sequence (Q13873 27-1038 limits assumed, chain 2 of 2, further chain): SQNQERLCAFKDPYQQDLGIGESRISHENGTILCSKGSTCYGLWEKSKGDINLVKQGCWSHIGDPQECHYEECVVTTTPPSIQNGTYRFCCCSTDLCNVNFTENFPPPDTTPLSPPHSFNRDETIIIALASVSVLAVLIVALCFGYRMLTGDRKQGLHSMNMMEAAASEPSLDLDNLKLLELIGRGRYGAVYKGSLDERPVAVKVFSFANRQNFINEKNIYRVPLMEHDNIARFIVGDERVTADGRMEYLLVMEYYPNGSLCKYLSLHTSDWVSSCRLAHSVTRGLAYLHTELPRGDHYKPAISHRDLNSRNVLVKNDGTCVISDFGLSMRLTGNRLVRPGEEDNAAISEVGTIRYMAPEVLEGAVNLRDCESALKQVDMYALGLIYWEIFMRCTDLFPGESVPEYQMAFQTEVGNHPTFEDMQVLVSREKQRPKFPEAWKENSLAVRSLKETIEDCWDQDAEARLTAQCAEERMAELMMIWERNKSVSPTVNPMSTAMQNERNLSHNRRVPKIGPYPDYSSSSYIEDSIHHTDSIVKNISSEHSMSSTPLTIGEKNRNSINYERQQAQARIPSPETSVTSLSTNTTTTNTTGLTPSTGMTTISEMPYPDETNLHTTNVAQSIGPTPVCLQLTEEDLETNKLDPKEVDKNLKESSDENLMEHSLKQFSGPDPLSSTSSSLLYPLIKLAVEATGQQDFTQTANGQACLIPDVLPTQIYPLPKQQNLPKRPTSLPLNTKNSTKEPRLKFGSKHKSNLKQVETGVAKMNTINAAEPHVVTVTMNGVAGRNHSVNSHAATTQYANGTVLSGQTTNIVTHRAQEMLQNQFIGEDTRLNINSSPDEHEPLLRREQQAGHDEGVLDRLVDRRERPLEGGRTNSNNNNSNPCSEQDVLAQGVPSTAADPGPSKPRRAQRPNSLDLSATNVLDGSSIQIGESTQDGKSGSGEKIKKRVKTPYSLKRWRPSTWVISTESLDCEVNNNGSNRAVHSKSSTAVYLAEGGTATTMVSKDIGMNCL

B1: DGL292 (bispecific antibody, human IgG1, lambda)
heavy: EVQLLESGGGLVQPGGSLRLSCAASGFTFSDYYMTWIRQAPGKGLEWVSSISGGSTYYADSRKGRFTISRDNSENTLYLQMNSLRAEDTAVYYCARDFGVAGWFGQYGMDVWGQGTLVTVSSPAPNLLGGPEVQLLESGGGLVQPGGSLRLSCAASGFTFSSYAMSWVRQAPGKGLEWVANINQDGSEKNYVDSMRGRFTISRDNSKNTLYLQMNSLRAEDTAVYYCAREFDYWGQGTLVTVTSSASTKGPSVFPLAPSSKSTSGGTAALGCLVKDYFPEPVTVSWNSGALTSGVHTFPAVLQSSGLYSLSSVVTVPSSSLGTQTYICNVNHKPSNTKVDKKV[letters of human IgG1 Fc with L234A L235A G237A (EU numbers) left out]
light: QSVLTQPPSASGTPGQRVTISCTGSSSNIGAGYDVHWYQQLPGTAPKLLIYRSNQRPSGVPDRFSGSKSGTSASLAISGLRSEDEADYYCSSYAGNYNLVFGGGTKLTVLPAPNLLGGPQSVLAQPPSASGTPGQRVTISCSGSSSNIGSNYVYWYQQLPGTAPKLLIYGNNKRPSGVPDRFSGSKSGTSASLAISGLRSEDEADYYCAAWDDSLNGRVFGGGTKLTVLGQPKAAPSVTLFPPSSEELQANKATLVCLISDFYPGAVTVAWKADSSPVKAGVETTTPSKQSNNKYAASSYLSLTPEQWKSHRSYSCQVTHEGSTVEKTVAPTECS
Agonist activity in DiscoverX assay, % Emax BMP9 [1]: 60 % Emax BMP9 | Agonist activity, % Emax BMP9 (DiscoverX assay, average of two experiments) [2]: 57 % Emax BMP9 | Agonist activity, % Emax BMP9 [3]: 74 % Emax BMP9 | Agonist activity, EC50 [3]: 0.09 nM | Agonist activity, EMAX (RLU) [3]: 1.96e+06 RLU | pSMAD1 ELISA in HUVEC, RLU 15 minutes, at 0 nM (baseline) [4]: 4.6 RLU | pSMAD1 ELISA in HUVEC, RLU 15 minutes, at 0.4 nM [4]: 4.6 RLU | pSMAD1 ELISA in HUVEC, RLU 15 minutes, at 2 nM [4]: 5.7 RLU | pSMAD1 ELISA in HUVEC, RLU 15 minutes, at 10 nM [4]: 6.7 RLU | pSMAD1 ELISA in HUVEC, RLU 60 minutes, at 0 nM (baseline) [4]: 4.4 RLU | pSMAD1 ELISA in HUVEC, RLU 60 minutes, at 0.4 nM [4]: 23.7 RLU | pSMAD1 ELISA in HUVEC, RLU 60 minutes, at 2 nM [4]: 32.3 RLU | pSMAD1 ELISA in HUVEC, RLU 60 minutes, at 10 nM [4]: 33.9 RLU | Agonist activity, % Emax BMP9 [5]: 74 % Emax BMP9 | Agonist activity, EC50 [5]: 0.09 nM | Agonist activity, EMAX (RLU) [5]: 1.96e+06 RLU

B2: DGL811 (bispecific antibody, human IgG1, lambda)
heavy: EVQLLESGGGLVQPGGSLRLSCAASGFTFSDYYMTWIRQAPGKGLEWVSSISGGSTYYADSRKGRFTISRDNSENTLYLQMNSLRAEDTAVYYCARDFGVAGWFGQYGMDVWGQGTLVTVSSPLAPEVQLLESGGGLVQPGGSLRLSCAASGFTFSSYAMSWVRQAPGKGLEWVANINQDGSEKNYVDSMRGRFTISRDNSKNTLYLQMNSLRAEDTAVYYCAREFDYWGQGTLVTVTSSASTKGPSVFPLAPSSKSTSGGTAALGCLVKDYFPEPVTVSWNSGALTSGVHTFPAVLQSSGLYSLSSVVTVPSSSLGTQTYICNVNHKPSNTKVDKKV[letters of human IgG1 Fc with L234A L235A G237A (EU numbers) left out]
light: B1 light
Agonist activity, % Emax BMP9 (DiscoverX assay, average of two experiments) [2]: 73 % Emax BMP9

B3: DGL812 (bispecific antibody, human IgG1, lambda)
heavy: B1 heavy
light: QSVLTQPPSASGTPGQRVTISCTGSSSNIGAGYDVHWYQQLPGTAPKLLIYRSNQRPSGVPDRFSGSKSGTSASLAISGLRSEDEADYYCSSYAGNYNLVFGGGTKLTVLPLAPQSVLAQPPSASGTPGQRVTISCSGSSSNIGSNYVYWYQQLPGTAPKLLIYGNNKRPSGVPDRFSGSKSGTSASLAISGLRSEDEADYYCAAWDDSLNGRVFGGGTKLTVLGQPKAAPSVTLFPPSSEELQANKATLVCLISDFYPGAVTVAWKADSSPVKAGVETTTPSKQSNNKYAASSYLSLTPEQWKSHRSYSCQVTHEGSTVEKTVAPTECS
Agonist activity, % Emax BMP9 (DiscoverX assay, average of two experiments) [2]: 62 % Emax BMP9

B4: DGL289 (bispecific antibody, human IgG1, lambda)
heavy: EVQLLESGGGLVQPGGSLRLSCAASGFTFSIYAMSWVRQAPGKGLEWVSAISGSGGSTYYADSVKGRFTISRDNSKNTLYLQMNSLRAEDTAVYYCARDFDYWGQGTLVTVTSSPAPNLLGGPEVQLLESGGGLVQPGGSLRLSCAASGFTFSNAWMNWVRQAPGKGLEWVSSISSSSSYIYYADSVKGRFTISRDNSKNTLYLQMNSLRAEDTAVYYCARAVAAGGMFWGLDQWGQGTLVTVTSSASTKGPSVFPLAPSSKSTSGGTAALGCLVKDYFPEPVTVSWNSGALTSGVHTFPAVLQSSGLYSLSSVVTVPSSSLGTQTYICNVNHKPSNTKVDKKV[letters of human IgG1 Fc with L234A L235A G237A (EU numbers) left out]
light: QSVLTQPPSASGTPGQRVTISCSGSSSNIGSNYVYWYQQLPGTAPKLLIYGNINRPSGVPDRFSGSKSGTSASLAISGLRSEDEADYYCAAWDDSLNGRVFGGGTKLTVLPAPNLLGGPQSVLTQPPSASGTPGQRVTISCSGSRSNIGSNSVHWYQQLPGTAPKLLIYGNSNRPSGVPDRFSGSKSGTSASLAISGLRSEDEADYYCQSYDSSLNDHVVFGGGTKLTVLGQPKAAPSVTLFPPSSEELQANKATLVCLISDFYPGAVTVAWKADSSPVKAGVETTTPSKQSNNKYAASSYLSLTPEQWKSHRSYSCQVTHEGSTVEKTVAPTECS
Agonist activity, % Emax BMP9 [3]: 68 % Emax BMP9 | Agonist activity, EC50 [3]: 2.4 nM | Agonist activity, EMAX (RLU) [3]: 1.8e+06 RLU | pSMAD1 ELISA in HUVEC, RLU 15 minutes, at 0 nM (baseline) [4]: 4.6 RLU | pSMAD1 ELISA in HUVEC, RLU 15 minutes, at 0.4 nM [4]: 4.4 RLU | pSMAD1 ELISA in HUVEC, RLU 15 minutes, at 2 nM [4]: 4.4 RLU | pSMAD1 ELISA in HUVEC, RLU 15 minutes, at 10 nM [4]: 4.7 RLU | pSMAD1 ELISA in HUVEC, RLU 60 minutes, at 0 nM (baseline) [4]: 4.4 RLU | pSMAD1 ELISA in HUVEC, RLU 60 minutes, at 0.4 nM [4]: 5 RLU | pSMAD1 ELISA in HUVEC, RLU 60 minutes, at 2 nM [4]: 5.2 RLU | pSMAD1 ELISA in HUVEC, RLU 60 minutes, at 10 nM [4]: 6.9 RLU | Agonist activity, % Emax BMP9 [5]: 68 % Emax BMP9 | Agonist activity, EC50 [5]: 2.4 nM | Agonist activity, EMAX (RLU) [5]: 1.8e+06 RLU

B5: DGL291 (bispecific antibody, human IgG1, lambda)
heavy: EVQLLESGGGLVQPGGSLRLSCAASGFTFSSYAMSWVRQAPGKGLEWVANINQDGSEKNYVDSMRGRFTISRDNSKNTLYLQMNSLRAEDTAVYYCAREFDYWGQGTLVTVTSSPAPNLLGGPEVQLLESGGGLVQPGGSLRLSCAASGFTFSDYYMTWIRQAPGKGLEWVSSISGGSTYYADSRKGRFTISRDNSENTLYLQMNSLRAEDTAVYYCARDFGVAGWFGQYGMDVWGQGTLVTVSSASTKGPSVFPLAPSSKSTSGGTAALGCLVKDYFPEPVTVSWNSGALTSGVHTFPAVLQSSGLYSLSSVVTVPSSSLGTQTYICNVNHKPSNTKVDKKV[letters of human IgG1 Fc with L234A L235A G237A (EU numbers) left out]
light: QSVLAQPPSASGTPGQRVTISCSGSSSNIGSNYVYWYQQLPGTAPKLLIYGNNKRPSGVPDRFSGSKSGTSASLAISGLRSEDEADYYCAAWDDSLNGRVFGGGTKLTVLPAPNLLGGPQSVLTQPPSASGTPGQRVTISCTGSSSNIGAGYDVHWYQQLPGTAPKLLIYRSNQRPSGVPDRFSGSKSGTSASLAISGLRSEDEADYYCSSYAGNYNLVFGGGTKLTVLGQPKAAPSVTLFPPSSEELQANKATLVCLISDFYPGAVTVAWKADSSPVKAGVETTTPSKQSNNKYAASSYLSLTPEQWKSHRSYSCQVTHEGSTVEKTVAPTECS
Agonist activity, % Emax BMP9 [3]: 36 % Emax BMP9 | Agonist activity, EC50 [3]: 0.2 nM | Agonist activity, EMAX (RLU) [3]: 952000 RLU | Agonist activity, % Emax BMP9 [5]: 36 % Emax BMP9 | Agonist activity, EC50 [5]: 0.2 nM | Agonist activity, EMAX (RLU) [5]: 952000 RLU

B6: DGL810 (bispecific antibody, human IgG1, lambda)
heavy: B2 heavy
light: B3 light
Agonist activity, % Emax BMP9 (DiscoverX assay, average of two experiments) [2]: 76 % Emax BMP9

B7: DGL290 (bispecific antibody, human IgG1, lambda)
heavy: EVQLLESGGGLVQPGGSLRLSCAASGFTFSNAWMNWVRQAPGKGLEWVSSISSSSSYIYYADSVKGRFTISRDNSKNTLYLQMNSLRAEDTAVYYCARAVAAGGMFWGLDQWGQGTLVTVTSSPAPNLLGGPEVQLLESGGGLVQPGGSLRLSCAASGFTFSIYAMSWVRQAPGKGLEWVSAISGSGGSTYYADSVKGRFTISRDNSKNTLYLQMNSLRAEDTAVYYCARDFDYWGQGTLVTVTSSASTKGPSVFPLAPSSKSTSGGTAALGCLVKDYFPEPVTVSWNSGALTSGVHTFPAVLQSSGLYSLSSVVTVPSSSLGTQTYICNVNHKPSNTKVDKKV[letters of human IgG1 Fc with L234A L235A G237A (EU numbers) left out]
light: QSVLTQPPSASGTPGQRVTISCSGSRSNIGSNSVHWYQQLPGTAPKLLIYGNSNRPSGVPDRFSGSKSGTSASLAISGLRSEDEADYYCQSYDSSLNDHVVFGGGTKLTVLPAPNLLGGPQSVLTQPPSASGTPGQRVTISCSGSSSNIGSNYVYWYQQLPGTAPKLLIYGNINRPSGVPDRFSGSKSGTSASLAISGLRSEDEADYYCAAWDDSLNGRVFGGGTKLTVLGQPKAAPSVTLFPPSSEELQANKATLVCLISDFYPGAVTVAWKADSSPVKAGVETTTPSKQSNNKYAASSYLSLTPEQWKSHRSYSCQVTHEGSTVEKTVAPTECS
Agonist activity, % Emax BMP9 [3]: 69 % Emax BMP9 | Agonist activity, EC50 [3]: 5.3 nM | Agonist activity, EMAX (RLU) [3]: 1.82e+06 RLU | Agonist activity, % Emax BMP9 [5]: 69 % Emax BMP9 | Agonist activity, EC50 [5]: 5.3 nM | Agonist activity, EMAX (RLU) [5]: 1.82e+06 RLU

Where two headings read alike, the source gives them in different places.
